Measured values: PubChem BioAssay AID488969 (Vanderbilt High Throughput Screening Facility, 2010)
In all, about 110,000 compounds were measured (“z-score”: median about -0.1, highest 2% from about 2 on). The list shows a part of the results. The source made the active and inactive calls.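 Rule for the calls: active = z-score in the third read window above 3 or below -3; inactive = the rest.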 Residues, ends and D or L forms follow the SMILES beside them. *: point of attachment. Boc = CC(C)(C)OC(=O)*

target: Metabotropic glutamate receptor 8 (Rattus norvegicus) (UniProt P70579); assay: mGluR8 Gi/Go-coupled signaling modulation – cell-based, rat, thallium flux, HTS, primary screen (AID 488969); conditions: HEK293 rat mGluR8, GIRK (G protein-gated inwardly rectifying potassium channel) thallium flux, FluoZin2; at 10 µM; stronger effect = higher value; submaximal glutamate (EC20) added with thallium
Sequence of UniProt P70579 (P70579 whole entry, looked up): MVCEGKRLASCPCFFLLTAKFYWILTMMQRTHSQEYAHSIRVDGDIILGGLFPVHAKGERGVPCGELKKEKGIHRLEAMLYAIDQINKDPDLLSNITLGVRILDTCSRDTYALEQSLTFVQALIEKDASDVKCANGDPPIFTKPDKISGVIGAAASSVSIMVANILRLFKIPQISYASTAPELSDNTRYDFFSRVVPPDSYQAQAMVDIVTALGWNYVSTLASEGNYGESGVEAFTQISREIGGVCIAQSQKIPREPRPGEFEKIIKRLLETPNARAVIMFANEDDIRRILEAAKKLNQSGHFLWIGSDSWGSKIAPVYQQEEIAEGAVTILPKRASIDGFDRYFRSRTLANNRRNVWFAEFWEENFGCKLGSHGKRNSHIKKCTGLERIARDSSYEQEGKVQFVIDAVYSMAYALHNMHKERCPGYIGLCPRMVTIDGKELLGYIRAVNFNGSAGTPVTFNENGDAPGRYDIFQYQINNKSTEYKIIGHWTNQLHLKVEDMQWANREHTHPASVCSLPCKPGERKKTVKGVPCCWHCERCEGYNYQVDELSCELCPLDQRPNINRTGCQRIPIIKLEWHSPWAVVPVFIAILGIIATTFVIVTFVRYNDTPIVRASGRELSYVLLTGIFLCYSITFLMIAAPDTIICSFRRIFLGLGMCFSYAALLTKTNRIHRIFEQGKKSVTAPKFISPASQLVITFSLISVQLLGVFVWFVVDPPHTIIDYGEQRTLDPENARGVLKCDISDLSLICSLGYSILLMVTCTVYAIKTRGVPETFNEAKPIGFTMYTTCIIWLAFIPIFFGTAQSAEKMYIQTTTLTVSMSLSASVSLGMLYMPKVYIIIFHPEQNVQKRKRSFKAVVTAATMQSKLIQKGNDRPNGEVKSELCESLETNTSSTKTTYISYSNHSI

SMILES | z-score
O=C1CCCc2nc(N3CCc4ccccc43)ncc21 | -0.717
Cc1cc(C)c(C)c(/C=C(/C#N)C(N)=S)c1C | 0.448
N/C(=N\c1nc2c(c(=O)[nH]1)CCCC2)Nc1ccc(Oc2ccccc2)cc1 | -0.175
Cc1nn(C)c(C)c1C(=O)NN | -0.373
O=C(Nc1ccc2c(c1)OCO2)c1cnn2c1NC(c1ccco1)CC2C(F)(F)F (stereo not given) | -0.418
CCc1nn2cc(C(=O)c3ccccc3O)cnc2c1-c1ccc(F)cc1 | -0.445
Cc1c(C(=O)OC(C)C)sc(NC(=O)c2cccnc2)c1C#N | -0.473
Oc1c(C(c2cccs2)N2CCOCC2)sc2ncnn12 (stereo not given) | -0.135
CN1CCN(Cc2nc3c([nH]2)c(=O)[nH]c(=O)n3C)CC1 | -0.507
Cc1cccc(NC(=S)Nc2ccc(Oc3ccccc3)cc2)n1 | 0.00566
COc1ccccc1OC(C)c1nnc(SCC(=O)Nc2c(C)n(C)n(-c3ccccc3)c2=O)n1-c1ccccc1 (stereo not given) | 0.0106
CCC1Oc2ccccc2N(Cc2ccccc2C)C1=O (stereo not given) | -0.203
Cc1cc(=O)oc2c(CN(C)Cc3ccccc3)c(O)ccc12 | -0.0689
CCOC(=O)Cc1csc(NC(=O)CSc2nnc(C)n2C)n1 | -0.145
Cc1ccc(-c2nc(N)sc2CC(=O)OCC(=O)NCC2CCCO2)cc1 (stereo not given) | -0.161
S=c1[nH]nc(-c2ccccc2)n1/N=C/c1cccs1 | 0.587
CCC1(c2ccc(F)cc2)NC(=O)N(CC(=O)c2ccc[nH]2)C1=O (stereo not given) | 0.707
CC1CCCC(NC(=O)COC(=O)c2c[nH]c(=O)[nH]c2=O)C1C (stereo not given) | 0.249
COC(=O)c1nn(-c2ccccc2)c(Sc2ccc(Br)cc2)c1/C=N/O | -0.191
O=C(O)c1ccc(-c2ccc(O)c(F)c2)cc1 | 0.639
O=C(CCS(=O)(=O)Cc1ccccc1)NC1CCCCC1 | -0.346
O=C(N/N=C/c1ccccc1OCc1ccccc1)c1cccs1 | -0.124

SMILES | z-score
COc1ccc(NC(=O)CN2CCN(c3ccc(F)cc3)CC2)cc1Cl | 0.303
Cc1cccc2sc(N(CCN(C)C)C(=O)/C=C/c3cccs3)nc12 | -0.145
CC(=O)c1c(C)oc2ccc(NS(=O)(=O)c3ccc(O)c(C(=O)O)c3)cc12 | 0.0135
CC(C)Cn1c(-c2ccco2)csc1=Nc1cccnc1 | -0.22
C=CCn1c(COC)nnc1SCC(=O)c1ccc(F)cc1 | -0.00617
Cc1cc2c(c(=O)n1Cc1ccc3c(c1)OCO3)C(c1cccnc1)C(C#N)=C(N)O2 (stereo not given) | -0.479
Cc1cccc(CS(=O)(=O)Cc2ccc(C(=O)NCCCN3CCOCC3)o2)c1 | -0.0985
c1ccc(N2CCN(c3ncccn3)CC2)cc1 | -0.166
Cc1oc(-c2ccccc2F)nc1CS(=O)CC(=O)NCc1ccc2c(c1)OCO2 (stereo not given) | -0.385
Cc1cc(C(C)(C)C)oc1C(=O)N(CC(=O)NC1CCCC1)c1ccc(F)cc1 | -0.319
CC1CCN(C(=O)CCCOc2cc(=O)n(C)c3ccccc23)CC1 | 0.0485
CCN1CCN(c2nc3c(c(=O)n(C)c(=O)n3C)n2Cc2cccc3ccccc23)CC1 | -0.307
CCC1(COC(NC(=O)c2cccnc2)(C(F)(F)F)C(F)(F)F)COC1 | -0.111
COC(=O)c1ccc(Sc2ccc(F)cc2)c(N)c1 | -0.17
CC(C)=NN/C(N)=N/C(=S)Nc1ccc(C)cc1 | 0.199
COc1ccc2c(=O)c(-c3ccccc3C)c(C)oc2c1 | -0.284
Cc1nn(-c2ccccc2)c(Cl)c1C(=O)NCc1cccs1 | -0.201
COc1ccc(-c2cc(CN3C(=O)c4ccccc4C3=O)on2)cc1 | -0.0244
N#Cc1c(NC(=O)CSc2nc(-c3ccccc3)cc(C(F)(F)F)n2)sc2c1CCC2 | 0.0217
Cc1cc(C)nc(Sc2ncnc3c2oc2ccccc23)n1 | -0.444
COc1cccc(S(=O)(=O)NCc2ccc3c(c2)OCO3)c1 | 1.36
CCCn1c(CN(C)Cc2ccccc2)nc2c1c(=O)n(C)c(=O)n2C | -0.000123

SMILES | z-score
Cc1ccc(NC(=O)CSc2nnc(-c3ccncc3)n2N)cc1C | -0.422
O=C(CNC(=O)c1ccccc1)OCc1ccc([N+](=O)[O-])cc1 | -0.159
COc1ccc(OC)c(S(=O)(=O)Nc2ccccc2C(F)(F)F)c1 | 1.52
Cc1ccc(OCc2nc(-c3ccccn3)n[nH]2)cc1 | -0.23
O=C(Nc1nnc(-c2ccccc2)o1)c1cccc(N2C(=O)CCC2=O)c1 | -0.326
CCOc1cc(C(=O)NC(C)CC)cc(OCC)c1OCC (stereo not given) | -0.153
Cc1nc2sc(C(c3cccc(F)c3)N3CCN(C(=O)c4ccco4)CC3)c(O)n2n1 (stereo not given) | -0.183
O=S(=O)(CCSc1nc2ccccc2o1)Cc1ccccc1 | -0.248
Cc1ccc(NC(=S)N(CCN(C)C)Cc2cc3cc(C)cc(C)c3[nH]c2=O)cc1 | -0.129
CCC(C)C(NC(=O)OC(C)(C)C)C(=O)NC(Cc1ccccc1)C(=O)OC (stereo not drawn) (Boc-Ile-Phe-OMe; configuration not given here) | -0.0149
CCN(c1ccccc1)S(=O)(=O)c1ccc(Cl)c(NC(=O)COC(=O)c2ccc(O)cc2)c1 | 0.222
CC(NC(=O)/C=C/c1ccco1)c1nc2ccccc2n1Cc1c(Cl)cccc1Cl (stereo not given) | -0.0115
COc1ccc(CC(=O)Nc2ccc(S(=O)(=O)Nc3nc(C)cc(C)n3)cc2)cc1 | 0.396
CNC(=O)/C(=C\C=C\c1ccccc1)NC(=O)c1ccc([N+](=O)[O-])cc1 | 0.113
CCn1ncc(Br)c1C(=O)Nc1nccs1 | 0.199
CC(=O)Nc1ccc(N2C(=O)C3C4CC(=O)C(c5ccccc54)C3C2=O)cc1 (stereo not given) | -0.115
O=C(NCC(c1cccnc1)N1CCN(c2ccc(F)cc2)CC1)c1cccc(Cl)c1 (stereo not given) | 0.0504
Cc1[nH]c2ccccc2c1C(=O)COC(=O)C1CC(=O)N(Cc2ccccc2)C1 (stereo not given) | -0.363
CC(C)c1ccc(-c2noc(C3CCCN(C(=O)c4ccc(F)cc4F)C3)n2)cc1 (stereo not given) | -0.983
Cc1ccc(/C=N/N2CCN(Cc3ccc(Cl)cc3)CC2)o1 | -0.259
Cc1ccc(S(=O)(=O)c2cc3ccccc3oc2=Nc2ccc3c(c2)OCO3)cc1 | -0.186
O=c1[nH]c(N2CCOCC2)nc2c1CCCC2 | -0.139

SMILES | z-score
O=C(O)C1C2C=CC(C2)C1C(=O)NCCc1cccc(Cl)c1 (stereo not given) | active: 6.03
O=c1[nH]c(CSc2nnc(NCCCN3CCOCC3)s2)nc2cc(Cl)ccc12 | 0.0343
O=c1n(S(=O)(=O)c2cccc3cccnc23)c2ccccc2n1S(=O)(=O)c1cccc2cccnc12 | 0.161
CC(C)COC(=O)C1C(=O)CC(C)(O)C(C(=O)OCC(C)C)C1c1cccnc1 (stereo not given) | -0.358
CCCCOC(=O)n1c(SCC(=O)N(C)C)nc2ccccc21 | 0.293
CC(C)N1CC(C(=O)Nc2nc3ccccc3s2)CC1=O (stereo not given) | -0.113
CCc1nnc(NC(=O)CN2CCC(O)(c3ccccc3OC)CC2)s1 | -0.0425
CCc1ccc(CN2CCN(S(=O)(=O)Cc3ccccc3)CC2)cc1 | -0.261
CC(C)(C)C1CCC(OCC(O)CN2CCN(c3ccccc3)CC2)CC1 (stereo not given) | -0.235
CCOC(=O)c1c(N)sc(C(O)(C(F)(F)F)C(F)(F)F)c1-c1ccc(F)cc1 | -0.231
CCc1nc(SCC(=O)Nc2ccnc3ccccc23)n[nH]1 | -0.312
CC1CC(C)CN(C(=O)CSc2nc3ccsc3c(=O)n2Cc2ccccn2)C1 (stereo not given) | -0.509
COc1cc(/C=C/C(=O)c2ccc(C)cc2)ccc1OCC#N | -0.366
CCCn1c(=O)[nH]c2ccccc21 | -0.219
COC(=O)Nc1ncc(CN2CCc3ccccc3C2)s1 | -0.224
COc1cccc(C(=O)/C=C/Nc2ccc(S(=O)(=O)Nc3ccc(C(C)=O)cc3)cc2)c1 | 0.284
Cc1cc(S(=O)(=O)N2CCOCC2)ccc1F | -0.199
CCOC(=O)C1=C(C)NC(C)=C(C(=O)OCC)C1c1ccc(Br)o1 | -0.356
CC1CCN(c2nc3c(c(=O)[nH]c(=O)n3C)n2Cc2ccccc2Cl)CC1 | -0.143
O=C(COC(=O)c1cccnc1Nc1cccc(C(F)(F)F)c1)NC1CCS(=O)(=O)C1 (stereo not given) | -0.275
CCN(CC)c1ncnc2c1[nH]c1ccccc12 | -0.558
CCC(C)N1CCCC1C(=O)Nc1c(C)cc(C)cc1C (stereo not given) | -0.0125

SMILES | z-score
O=C(COC(=O)c1ccc([N+](=O)[O-])s1)NC(c1ccccc1)c1ccccc1 | -0.115
Nc1cc(Cl)ccc1Oc1ccc(Cl)cc1 | -0.0791
CCn1c(CSc2nc3ccccc3s2)nnc1SCC(=O)c1ccc(O)cc1O | -0.00868
O=C(NNC(=O)c1ccncc1)c1ccncc1 | 0.419
Nc1c2c(nc3sc4c(c13)CCCCC4)CCCCC2 | 0.847
N/C(=N\c1nc2c(c(=O)[nH]1)CCC2)Nc1cccc2ccccc12 | -0.0995
CC1CCc2cc(F)ccc2N1C(=O)C1(C)CC1(Cl)Cl (stereo not given) | -0.268
O=C(Nc1ccccc1F)c1ccc(COc2ccc(Cl)cc2Cl)o1 | -0.0451
COc1cccc(N2C(=O)C3CCCN3C2c2ccc(N(C)C)cc2)c1 (stereo not given) | -0.123
COc1ccc(N(C(=O)/C=C/C(=O)Nc2cc(C)on2)C(C(=O)NC2CCCC2)c2ccccc2C)cc1 (stereo not given) | -1.71
C=CCNC(=O)c1cccn1-c1ccsc1C(=O)OC | 0.0752
CC1=C(C(=O)OC(C)C)C2(O)C(=O)c3ccccc3C2(O)N1 (stereo not given) | 0.0714
CCCCCn1c(=O)[nH]c2cc(C(=O)NCCCN(CC)CC)ccc2c1=O | 0.842
O=C1c2ccccc2C(=O)N1Cc1nc(-c2cccnc2)no1 | -0.318
CC(C)(C)C1CCC(=NNc2ncc(C(F)(F)F)cc2Cl)CC1 (stereo not given) | -0.635
CN(CP(=O)(O)C(O)c1ccccc1)S(C)(=O)=O (stereo not given) | 0.41
CCCSc1cc(N2CCOCC2)nc(-c2ccccc2Cl)n1 | -0.577
O=C(CSc1ccc(-c2cccs2)nn1)N1CCCCCC1 | 0.551
COc1ccc(CC(=O)NC(C)(C)CC(C)=O)cc1OC | 0.824
CCOC(=O)N1CCN(c2c(NCc3ccccc3OC)c(=O)c2=O)CC1 | -0.574
O=C(Cn1cc(C(=O)C2CC2)c2ccccc21)NC1CCCC1 | 0.162
COc1cc(CNc2ncn[nH]2)cc(Br)c1OC | -0.166
